The source gives no read counts; variants with many changes may rest on few reads.
B1: LINE1-mini (parent)
chain: GGCAGAGCUCAACACAGCGUGGCAAAGUGGCUGUGGCUAGACUGCC

Variants of: B1
Test: self-cleavage, relative activity (ratio to wild type); higher = more cleavage; in vitro, sequencing; the parent is a self-cleaving ribozyme

| Variant | self-cleavage |
| --- | --- |
| C8G C13G U20C | 0.03 |
| C8G C10G C31G | 0.01 |
| C8A U20C C23U G27U G35C U38G | 0.17 |
| C8G A12U C15U | 0.07 |
| C8G G27U G30C U38G G40U | 0.01 |
| C8G G21U G40U U43C | 0.27 |
| C8G C15G A39G G40U C45U | 0.01 |
| C8G U9A U38A | 0.09 |
| C8G C10A A26G | 0.01 |
| C8G G22A C46U | 0.03 |
| C8G G29C A39G C45U | 0 |
| C8G C10U A25U U34G G35A | 0.01 |
| C8G A11U G22U U32G C37A | 0.01 |
| C8G A11G C23A | 0.04 |
| C8G A14U A26C | 0.03 |
| C8G U9A G29A A39U | 0.02 |
| C8G G19A U32C G44A | 0.02 |
| C8G A14G U20A C42A | 0.02 |
| C8G A16U A24C C42A C45A | 0.05 |
| C8G G19A G29U | 0.17 |
| C8G A11C G30C C46G | 0.01 |
| C8G C10U C13U C18U G19U A24G | 0.02 |
| C8G A25G U43G | 0.28 |
| C8G A12U A41G C45A | 0.11 |

| Variant | self-cleavage |
| --- | --- |
| C8G C10A G36C | 0.01 |
| C8G C10U A11C | 0.05 |
| C8G A16C U28G G30A C31A | 0.03 |
| C8G G19A C23U G36U U38G | 0.01 |
| C8G G36C C46U | 0.33 |
| C8A U28C G30C | 0.04 |
| C8G A14C A25C | 0.02 |
| C8G A12G C13U G35U | 0.01 |
| C8G G21A G33U G44A C46U | 0.05 |
| C8G C13A A24U U32C | 0.1 |
| C8G A11G C15G | 0.03 |
| C8G C15A G21C G33A A41G | 0.04 |
| C8A U34G G35U C46G | 0.1 |
| C8G G30U G44U C46G | 0 |
| C8G C13U U20A U34A | 0.02 |
| C8G C23G G27C | 0.02 |
| C8G C13U G29A G35C A41U U43C | 0.04 |
| C8G G27U A39U C46U | 0.01 |
| C8G C15G G36C | 0.03 |
| C8G A24C A25C | 0.06 |
| C8G C15G A16G U20G G27C U28C | 0 |
| C8G A12C G36U | 0.05 |
| C8G U9C C23A G44C | 0.02 |
| C8G A11C A14U G40U | 0.06 |

| Variant | self-cleavage |
| --- | --- |
| C8G C13G C15A G29A G35A A39C U43A C46U | 0.05 |
| C8G C13U G21C A39C | 0.3 |
| C8G A14G G36C U38G | 0.04 |
| C8G C23U G29U | 0.03 |
| C8G C23G U34G | 0.01 |
| C8G U9C C46A | 0 |
| C8G C31A G40C G44A | 0.01 |
| C8G C13U G17A G19C G36A | 0.07 |
| C8G C18G U38C | 0.01 |
| C8G C18G G35U | 0.03 |
| C8G A16C G44C | 0.01 |
| C8G G27U G30U U34C G35U A41C | 0.13 |
| C8G A11C C15G A41C | 0.01 |
| C8G G19A C23U C45A | 0 |
| C8G U9C A12U C45A | 0.02 |
| C8G C13G U34A | 0.23 |
| C8G A24U G27A | 0.14 |
| C8G G17U G27C U32G G33C U34A C45U | 0.02 |
| C8G C15U C23U A39C | 0.14 |
| C8G A16C G36C C45G | 0.02 |
| C8G G33U G35C A41U | 0.02 |
| C8G C10A A26U G27U C42U | 0.06 |
| C8G G19C G35A | 0.17 |
| C8G C10G A39G | 0.02 |

| Variant | self-cleavage |
| --- | --- |
| C8G C13G G17C G19U G33U | 0.01 |
| C8G A11G U32A U43A C45G | 0.01 |
| C8G A16G C31G G44U | 0.06 |
| C8G C13U G27C U28A A39U | 0 |
| C8G A16G G27C U28G G29C C31A U34G | 0 |
| C8A U34C G35C | 0.05 |
| C8A U20G G30A | 0.21 |
| C8G G36A C42G | 0.04 |
| C8G C13G G36A | 0.04 |
| C8G G17U G21C A24G G36C C42G | 0.06 |
| C8G G17U C18A C23G C37A | 0.18 |
| C8G U9C G29A G30A U34A | 0.01 |
| C8G A11C G40A | 0.01 |
| C8G A24C U28G | 0.06 |
| C8G A11G C13U C15A G21U | 0.03 |
| C8G G17A C42U U43G | 0.05 |
| C8G U9C C10A C15U C18A G40U | 0.03 |
| C8G C10A A12U A14C C42G G44C C45A | 0.01 |
| C8G C15A U28A U38G C46U | 0.02 |
| C8G A26G G33A C45G | 0.02 |
| C8G C10A G40A | 0.01 |
| C8G C31U U38C | 0.03 |
| C8G C10A C23G G33A | 0.01 |
| C8G C37U C42G | 0.01 |

| Variant | self-cleavage |
| --- | --- |
| C8G G21C C23A G33U A39U G44C | 0.01 |
| C8G G27A G35C | 0.04 |
| C8G G17C G40C | 0.02 |
| C8G C15U A24U C45G | 0.05 |
| C8A U34G C37A | 0.58 |
| C8G C23U C45A | 0.07 |
| C8G A16U G21C U38G | 0.01 |
| C8A U28C U34G | 0.13 |
| C8G G33U C37G C45U | 0.07 |
| C8G G17U U34G G36U C46A | 0.09 |
| C8G A16C U43C | 0.01 |
| C8G A12U G19A | 0.01 |
| C8G A11C G17C C42G G44C | 0 |
| C8G C13G A41C C46U | 0 |
| C8G G17U U28C | 0.01 |
| C8G U9C U32A | 0.01 |
| C8A U20C C31A U32C | 0.05 |
| C8G A11U C18U | 0.02 |
| C8G G19C C37U | 0.02 |
| C8G A12U C13G A41U | 0.02 |
| C8G C13A G27A | 0.1 |
| C8G G27C G29C | 0.04 |
| C8G C10U G17U U20A G22U | 0.03 |
| C8A U28C G29A G35U C46G | 0.03 |

| Variant | self-cleavage |
| --- | --- |
| C8G A41U G44U | 0.3 |
| C8G G29A C31A C37U | 0.06 |
| C8G C18A C37A | 0.04 |
| C8G C18A C37U | 0.15 |
| C8G G19U A25G C37A A39G | 0.02 |
| C8G A11G C13A C37A | 0.01 |
| C8G A12G U43C | 0.02 |
| C8G A39U G40A | 0.01 |
| C8G C15A G19A A39C C45A | 0.02 |
| C8G G17U G19A G27A G35A A41C G44C | 0.02 |
| C8G C10U C13G C42A C46A | 0.13 |
| C8A U32A G33A G44C | 0.02 |
| C8G C31A G40U | 0.03 |
| C8G C18A U28C U34G U43C | 0.02 |
| C8A U28C U38G | 0.01 |
| C8G G36A C46U | 0.05 |
| C8G G29C C31U | 0.01 |
| C8G G21U G27A C31G | 0.01 |
| C8G G17C A39G A41C | 0.01 |
| C8G C10A C31U G33U C42G C45A | 0.03 |
| C8G A14U C15A C46A | 0.09 |
| C8A U34C C46A | 0.03 |
| C8A U34C C46G | 0.36 |
| C8G C23U U43A | 0.08 |

| Variant | self-cleavage |
| --- | --- |
| C8G U9C C15G G17C U32A | 0.01 |
| C8G A11G U28A | 0.01 |
| C8G A25C G27A | 0.01 |
| C8G A14G A16G G17U U28A G30U U34A C37G A41U | 0.03 |
| C8G C15A G17C G21A G22C A24G | 0.02 |
| C8G C15A G33C | 0.07 |
| C8G G19C C31A G36A | 0.04 |
| C8A U28G C31G U34A | 0.33 |
| C8G U9C G22A A25U | 0.01 |
| C8G C15U C42G | 0.05 |
| C8G A26C G35C | 0 |
| C8G A25G G44U | 0 |
| C8A U32G G36A | 0.08 |
| C8G G19U G21U A26G C46U | 0.03 |
| C8G C13U A24C G40A | 0.02 |
| C8G G27A U28G G33U C37G | 0.06 |
| C8G C18A A25G G29A | 0.02 |
| C8G A16C A41U | 0.02 |
| C8G A16C A41G | 0.02 |
| C8A U34C G40A | 0.05 |
| C8G G35U A41U | 0.06 |
| C8G G33U C45G C46U | 0.08 |
| C8G A26U U32G G36U C37A G40U | 0.15 |

From the RNAGym collection of RNA variant scans (doi:10.7554/elife.90254)
